# Measured values reported in ChEMBL document CHEMBL1201862, “PubChem BioAssay data set” (2004).
#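 These data come from cells grown in 96-well plates and exposed to compound for 48 hours at five concentrations. The concentration for 50% growth inhibition is given as GI50.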 Active and inactive are the calls of the source. No stated cut-off is given here; in the data, active = GI50 up to about 1.1 µM and inactive = higher.
# System: NCI-H322M
# Assay: inhibition of tumour cell growth, NCI panel, 48 h
row,Compound,GI50
1,NC(=O)NC(CC(=O)O)C(=O)O (centres undefined),inactive: > 100 µM
2,O=C1Nc2ccc(Br)cc2C1=Nc1cccnc1,inactive: 33.3 µM
3,O=C(O)CC1(C(=O)O)CCCCC1,inactive: > 100 µM
4,c1ccc(SC(Sc2ccccc2)c2ccc3c(c2)OCO3)cc1,inactive: > 100 µM
5,COC(=O)c1ccc(NCc2cc(O)ccc2O)cc1,inactive: 21.3 µM
6,CSc1ccc(/C=C/c2ccnc3ccccc23)cc1,inactive: 18.2 µM
7,Cc1ccccc1NC(=O)c1cc2cc(/N=N/c3ccccc3C(=O)O)ccc2oc1=O,inactive: 14.9 µM
8,Cc1ccc(NC(=O)CCC(=O)C2CC(=O)CCC2=O)cc1C (centres undefined),inactive: > 100 µM
9,O=C1CC(=O)NC(NNS(=O)(=O)c2ccc(Cl)cc2)=N1,inactive: > 100 µM
10,COc1cc2c(c(OC)c1OC)C(=O)NCCC2,inactive: > 100 µM
11,CC(C)=CC(=O)OC1C2C(C)=CC(=O)C(O)C2(C)C2C3(O)OCC24C(CC(=O)OC14)C(C)C3O (centres undefined),active: 0.169 µM
12,CS(=O)(=O)N1CC(CCl)c2ccc(NO)cc21 (centres undefined),inactive: 26.2 µM
13,CC1=NN(c2nc(N)nc(/C(C#N)=C\c3csc([N+](=O)[O-])c3)n2)C(C)(C)C1,inactive: 34.2 µM
14,CCOC(=O)N[C@H]1CCc2cc(O)c(OC)c(OC)c2-c2ccc(SC)c(=O)cc21,active: 0.0207 µM
15,COP(C)(=O)C1=CCN(C(=O)OCC[Si](C)(C)C)CC1 (centres undefined),inactive: > 100 µM
16,O=C1N[C@@H]2c3c(Br)sc(Br)c3C(=O)[C@@H]2N1,inactive: 7.55 µM
17,CCOP(=O)(CN1CCNCCN(CP(=O)(OCC)OCC)CC1)OCC,inactive: > 100 µM
18,C[C@]12CCC3c4ccc(O)cc4CC[C@H]3C1CC(=O)NC2=O (some centres undefined),inactive: > 10 µM
19,CCCCC1C=Cn2c(=O)oc3c(OC(C)C)c(C)c(O)c1c32 (centres undefined),inactive: 2.59 µM
20,CC(=O)c1c(SCCN2CCOCC2)n(-c2ccccc2)c(=S)n(-c2ccccc2)c1=O,inactive: 36.8 µM
21,CC(C)(C)C(=O)C(C#N)C(=O)C(C)(C)C,inactive: > 100 µM
22,O=c1o[nH]/c(=N/c2ccccc2)n1-c1ccccc1,inactive: > 100 µM
23,CC(C)(C)[C@H]1CO[C@]2(c3ccccc3)[C@@H]3C[C@@H]3C(=O)N12,inactive: > 100 µM
24,CN(C)CCCN1c2ccccc2CCc2cc([N+](=O)[O-])ccc21,inactive: 25 µM

row,Compound,GI50
1,COCOc1ccc(C(=O)Oc2cccc3c2OC(C)(C)O3)c(OCOC)c1,inactive: > 100 µM
2,OC12COc3ccccc3C1Oc1ccccc1C2 (centres undefined),inactive: > 100 µM
3,C[C@]12CC[C@H](O)CC1=CC[C@@H]1C2CC[C@]2(C)c3n[nH]nc3CC12 (some centres undefined),inactive: > 100 µM
4,CC(SCc1ccccc1)C(=O)O (centres undefined),inactive: > 100 µM
5,COc1cc(/C=C2\N=C(c3ccccc3)N(c3nc4ccc(Sc5ccccc5)cc4[nH]3)C2=O)cc(OC)c1OC,inactive: 38.1 µM
6,COC(=O)c1sc2c(c1C(=O)OC)/C(=N/C(C)(C)C)S/C2=N\C(C)(C)C,inactive: 23.8 µM
7,CC1=C(C)CC2C(=O)N(c3cc(C(C)(C)C)ccc3C(C)(C)C)C(=O)C2C1 (centres undefined),inactive: > 100 µM
8,CN1NC(c2ccccc2)=C(C#N)C(=O)CC1c1ccc(F)cc1 (centres undefined),inactive: > 100 µM
9,O=c1nc(Oc2c(F)c(F)c(F)c(F)c2F)ccn1C1OC(CO)C(O)C1O (centres undefined),inactive: > 100 µM
10,Cn1cnc2[nH]c(=O)[nH]c(=S)c21,inactive: > 100 µM
11,C[Si](C)(C)CCOCN(C(=O)C1=CCC2(CC1)OCCO2)c1ccccc1I,inactive: 19.3 µM
12,CCOC(=O)c1c(N2CCCC2)[nH]c(=O)c(C(c2ccc(Cl)c([N+](=O)[O-])c2)c2c(O)c(C(=O)OCC)c(N3CCCC3)[nH]c2=O)c1O,inactive: > 100 µM
13,O=C1C=Cc2c(I)sc(I)c21,inactive: 39.6 µM
14,COc1nc(N)c(NC2OC(CO)C(O)C2O)c(=O)[nH]1 (centres undefined),inactive: > 100 µM
15,NC1CCCCC1.O=C(O)C(CP(=O)(O)O)=C(Cl)Cl,inactive: > 100 µM
16,Cc1cc([N+](=O)[O-])ccc1Sc1c2ccccc2nc2cc(Cl)ccc12,inactive: > 100 µM
17,COc1cc2[nH]c(=O)c3cc(C)cc4c(Cl)nc(c1OC)c2c43,inactive: 27.5 µM
18,CC(C)CC(NC(=O)C(CI)Cc1ccccc1)C(=O)Nc1ccccc1 (centres undefined),inactive: > 100 µM
19,CCCCCCCCCCCCCCCCC(=O)NCC(=O)NCC(=O)NC(Cc1ccccc1)C(=O)Oc1ccc([N+](=O)[O-])cc1 (centres undefined),inactive: 40.9 µM
20,O=C1CC2(CCC(O)(c3ccc(Cl)cc3)C(C(=O)c3ccc(Cl)cc3)C2)C(=O)c2ccccc2N1 (centres undefined),inactive: 16.8 µM
21,COC1OC(C(=O)O)C2OC(C)(C)OC12 (centres undefined),inactive: > 100 µM
22,N#Cc1ccc(C(C2C(=O)NC(=O)NC2=O)C2C(=O)NC(=O)NC2=O)cc1,inactive: > 100 µM
23,COc1ccccc1NC(=O)CC(=O)N/N=C/c1ccc(N(CCC#N)S(=O)(=O)c2ccccc2)cc1,inactive: > 100 µM
24,CC(C)=C[C@H]1C[C@H](C)[C@H]2CC[C@H](C)c3c2c1c(C)c1ncoc31,inactive: 21.3 µM

row,Compound,GI50
1,COc1ccc(CN(Cc2ccc(OC)cc2)C(=O)CC2(O)C=CCC2)cc1 (centres undefined),inactive: > 100 µM
2,COc1ccc2nc3cc(Cl)ccc3c(NCCCNCc3cc(OC)c(OC)c(OC)c3)c2c1,inactive: 1.52 µM
3,Oc1ccccc1/C=N/c1ccccc1/N=C/c1ccccc1O,inactive: 78.7 µM
4,Cc1cc(Cl)ccc1NC(=O)C(=O)Cc1occc(=O)c1O,inactive: > 100 µM
5,COc1cccc(-c2cccc(SC)n2)n1,inactive: 59.2 µM
6,COC1=C(OC)C(=O)C(Cc2c(-c3ccccc3)nc3sc(Cl)cn23)=C(C)C1=O,inactive: 19.6 µM
7,O=C1c2ccccc2C2=Cc3ccccc3C(O)N12 (centres undefined),inactive: > 100 µM
8,COC(=O)Oc1nn(C(=O)OC)c(=O)c2ccccc12,inactive: > 100 µM
9,COC(=O)CCC(=O)NC1=C(Nc2ccc(OC)cc2)C(=O)c2ccccc2C1=O,inactive: 16.5 µM
10,CCN(CC)CCn1c2cc3c(cc2c(=O)c2cccnc21)OCO3,inactive: 5.21 µM
11,CCCCOP(=O)(OCCCC)/C(C#N)=C/c1ccc(C)o1,inactive: 56 µM
12,CCCC(=O)Nc1cn(COC)c(C(=O)N2C[C@@H]3C[C@]34C2=CC(=O)c2[nH]cc(C)c24)n1,inactive: 9.4 µM
13,O=Cc1cn(S(=O)(=O)c2ccccc2)c2ccccc12,inactive: 59.2 µM
14,O=S1(=O)NC2CCC3NS(=O)(=O)NC4CCC(N1)N4S(=O)(=O)N23 (centres undefined),inactive: > 100 µM
15,COc1ccc(NCC(=O)Nn2c(C)nc3ccc(S(=O)(=O)Nc4ccc(OC)cc4)cc3c2=O)cc1,inactive: > 100 µM
16,CCC1=CC2Cc3nc4cc(Cl)ccc4c(N)c3C(C1)C2 (centres undefined),inactive: 5.74 µM
17,Nn1c(-c2ccccc2)n[nH]c1=O,inactive: > 100 µM
18,O=C(Nc1nc2ncn(CCO)c2c(=S)[nH]1)c1ccccc1,inactive: > 100 µM
19,CC(=O)N1C(=O)/C(=C\C(=O)c2ccc([N+](=O)[O-])cc2)c2ccccc21,inactive: > 100 µM
20,CC(=O)[C@@H]1C/C(=C\OCc2ccccc2)O[C@H]1C,inactive: > 100 µM
21,Clc1ccc(-c2cc(-c3cc4cc(Br)ccc4nc3Cl)on2)cc1,inactive: 13.5 µM
22,O=P(OCc1ccccc1)(OCc1ccccc1)C(O)/C=C/c1ccccc1 (centres undefined),inactive: 26.1 µM
23,CN1CCC23c4c5ccc(O)c4OC2c2[nH]c4ccccc4c2CC3(O)C1C5 (centres undefined),inactive: 37.7 µM
24,C(=C\N1CCCCC1)/c1nnnn1-c1ccccc1,inactive: 38.9 µM

row,Compound,GI50
1,CC(=O)OCC1OC(n2c3c(cc(C#N)c2=S)CCCCCC3)C(OC(C)=O)C(OC(C)=O)C1OC(C)=O (centres undefined),inactive: > 100 µM
2,CN(C)CCn1c(=O)oc2cc(C(=O)CN3CCOCC3)ccc21,inactive: > 100 µM
3,CC[C@@]1(C[C@H]2C[C@@]3(C(=O)OC)c4[nH]c5ccccc5c4CCN3C2=O)COC2(CCCCC2)O1,inactive: 53.8 µM
4,O=C(O)Cc1ccc(Nc2nc3ccccc3nc2C(=O)O)cc1,inactive: > 100 µM
5,CSc1c(C#N)c(O)nc(N)c1C(=O)Nc1ccc(Cl)cc1,inactive: 12.6 µM
6,COC(=O)[C@@H](C)[C@H]1CC[C@@](C)(CCC2=C(C)CC3C=C(C)CCC3C2(C)C)OO1 (some centres undefined),inactive: 1.72 µM
7,C[C@]12CC[C@H](O)CC1=CC[C@@H]1[C@@H]2CC[C@]2(C)C(=N/O)/C(=C/c3ccc([N+](=O)[O-])cc3)C[C@@H]12,inactive: 4.66 µM
8,Cc1cccc(Nc2cn(CCOc3ccccc3)c(=O)n(CCOc3ccccc3)c2=O)c1,inactive: > 100 µM
9,CC(C)(C)C1=C(Br)C(F)(C(C)(C)C)OP1(=O)c1ccccc1 (centres undefined),inactive: 22.6 µM
10,CCCC(=O)n1[nH]c(=O)n(C(C)(C)C)c1=O,inactive: > 100 µM
11,Nc1ccc(-c2cssc2=S)cc1,inactive: 56.1 µM
12,CNC1=CC(=O)C2=C(C1=O)[C@H]1CC[C@]3(C)C(=O)CC[C@H]3[C@@H]1CC2,inactive: 15 µM
13,CC(=O)Nc1ccc(N2C(=O)CS(=O)(=O)C2c2cccc(Oc3ccccc3)c2)cc1 (centres undefined),inactive: 17.5 µM
14,O=C(O)CCC(O)=C1S(=O)(=O)OCCOS1(=O)=O,inactive: > 100 µM
15,O=S(=O)(O)c1ccc2c(/N=N/c3ccccc3Cl)c(O)ccc2c1,inactive: > 100 µM
16,COC1=CC(C2c3cc4c(cc3[C@@H](Nc3ccc(F)cc3)C3COC(=O)[C@H]23)OCO4)=CC(=O)C1=O (some centres undefined),inactive: 31.7 µM
17,CC1(C)C(OC(=O)c2ccccc2)C[C@]23CCC[C@](C)(C[C@@H](O)C12)C3 (some centres undefined),inactive: 17.4 µM
18,SC1=Nc2ccccc2-c2nc(-c3ccccc3)cc(-c3ccc(Br)cc3)c2C1,active: 0.804 µM
19,Cc1ccc(S(=O)(=O)NC(=O)Nc2c(S(N)(=O)=O)cc(S(N)(=O)=O)c(Cl)c2Cl)cc1,inactive: > 100 µM
20,COc1cc2c(c(OC)c1OC)-c1ccc(SC)c(=O)cc1[C@@H](NC(=O)C(F)(F)F)CC2,active: 0.0356 µM
21,CCN(CC)CCCNc1ncc(C)c2c1c1ccc3c(O)cccc3c1n2C,inactive: 1.44 µM
22,Cc1occc1/C(S)=N\c1ccc(Cl)c(C(=O)OCC2CC2)c1,inactive: > 100 µM
